# The RNAGym collection of RNA variant scans (doi:10.1073/pnas.2313332121)
# This sample is rich in variants without activity.
# B1: TPR 5TU (parent)
# chain: GGAUCUUCUCGAUCUAACAAAAAAGACAAAUCUGCCACAAAGCUUGAGAGCAUCUUCGGAUGCAGAGGCGGCAGCCUUCGGUGGCGCGAUAGCGCCAACGUUCUCAACUAUGACACGCAAAACGCGUGCUCCGUUGAAUGGAGUUUAUCAUG
# Variants of: B1
# Experiment: polymerase ribozyme fitness, log enrichment relative to wild type (log ratio); higher = more active; in vitro selection for triplet polymerase activity
# Procedure, shortened: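 Fitness measures genotype enrichment against wild-type enrichment on a logarithmic scale, with inverse-variance-weighted averaging of replicates. The logarithm is base 2, and genotypes were kept only with ≥10 input reads and ≥1 read per output in Illumina sequencing. The sequenced libraries came from one triplicate in vitro selection round, including frozen incubation at −7 °C, of PCR-built, transcribed mutant libraries of each subunit of a heterodimeric triplet polymerase ribozyme.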
row,Variant,polymerase ribozyme fitness (log ratio)
1,GGAUCUUCUCGAUCUACUAAAAAAGACAAAUCUGGCACAAAGCUAGAGAGCAUCUUAGGAUGCAGAGGCGGCAGCCUUCGGUGGCGCGAUAGCGCAAAUGUUCUCAACUAUGAUACGCAAAACGCGUGCUCCUUUGAAUGGAGUUUAUCAUG,≤ -4.2
2,GGAUCUUCUCGAUCUACUAAAAAAGACAAAUCUGCAUCAAAACUUGAGAGCAUCUUCGGAUGCAGAGGCGGCAGCCUUCGGUGGCGCGAUAGCGCCAACGUUCUCGACUAUGACACGCAAAAAGCGUGCUCCGUUGAAUGGAGUUUAUCAUG,≤ -4.2
3,GGAUCUUCUCGAUCUACUAAAAAAGACAAAUCUGCCACAAAGUUUGAGAGCAUCUUCGGAUGCAGAGGCGGCAGCCUUCGGUGGCGCGAUAGCGCCGACGUUCUCAACUAUGACACGCAAAACGCGUGCUCCGUUGAAUGGAGUUUAACAUG,≤ -4.2
4,GGAUCUUCUCGAUCUACCAAAAAAGAGAAAUCUGCCACGAAUCUUGAGAGCAUCAUCGGAUGCAGAGCCGGCAGCCUUCGGUGGCGGGAUAGCGCCAGCGUUCUCAACUAUGACACGCAAAACGCGUGCUCCGUUGAAUGGAGUUUAUCAUG,≤ -4.2
5,GGAUCUUCUCGAUCUACCAAAAAAGACAAAUAUGCCACAAAGCUUGAGAGCAACUUCGGAUGCAGAAGCGGCACCCUUCGGUGGCGCGAUAGCGCCAACGAUCUCAACUAUGACACGCAAAACGCGUGCUCCGUUGAAUGGAGUUUAUCAUG,≤ -4.2
6,GGAUCUUCUCGAUCUACCAAAAAAGACAAAUAUGCCACAAAGCUUGAGAGCAUCUUCGGAUGCAGAGGCGGCAGCCUUCGGAGGCGCCAUAGCGCCAACGUUCUCAACUAUGACACGCAAAACGCGUGUUCCGUUGAAUGGAGUUUAUCAUG,≤ -4.2
7,GGAUCUUCUCGAUCUACCAAAAAAGACAAAUUUGCCACAAAGCUUGAGACCAUCAUCGGAUGCAGAGGCGGCAGCCUUCGGUGGCGCGAUAGCGCCAACGUUCUCAACUAUGACACGCAAAACGCGUGCUCCGUUGAAUGGAGUUUAUCAUG,≤ -4.2
8,GGAUCUUCUCGAUCUACCAAAAAAGACAAAUCUGUCAUUAAGCUUGAGAGCAUCUUCGGAUGCAGAGGCGGCAGCCUUCGGUGGCGCGAUAGCGCCAACGUUCUCAACUAUGACACACAAAACGCGUGCUCCGUUGAAUGGAGUUUAUCAUG,≤ -4.2
9,GGAUCUUCUCGAUCUACCAAAAAAGACAAAUCUGUCACAAAGCUUGAGAGCAUCUUCGGAUGCAGAGGCGGCAGCCUUCGGUGGCACGAUAGCGCCAACGUUCUCAACUAUGACACGCAAAGCGCGUGCUCCGUUGAAUGGAGUUUAUCAUG,-1.01
10,GGAUCUUCUCGAUCUACCAAAAAAGACAAAUCUGCAACAAAGCUUGAGAGCAUCUUCGGAUGCACAGGCGGCAGCCUUCGGUGUGGCGAUAGCGCCAACGUUCUCAACUAUGACACGCAAAACGUGUGCUCCGUUGAAUGGAGUUUAUCAUG,≤ -4.2
11,GGAUCUUCUCGAUCUACCAAAAAAGACAAAUCUGCUACAAAGCUUGAGAGCCUCUUCGGAUGCAGAGGCGGCAGCCUUCUGUGCCGCGAUAGCGCCAACGUUCUCAUCUAUGACACGCAAAACGCGUGCUCCGUUGAAUGGAGCUUAUCAUG,≤ -4.2
12,GGAUCUUCUCGAUCUACCAAAAAAGACAAAUCUGCCAUAACGCUUGAGAGCAUCUUCGGCUGCAGAGGCGGCAGCCUUCGGUGGCGCGAUAGCGCCAACGUUCUCAACUAUGACACGCAAAACGCGUGCUCCGUUGAAUGGAGUUUAUCAUG,-1.39
13,GGAUCUUCUCGAUCUACCAAAAAAGACAAAUCUGCCACAAAGAUUGAGAGCAUCUUCGCAUGCAGAGACGGCAGCCUUCGGUGGCGCGAUAGCGUCAACGUUCUAAGCUAUGACACGCAAAACGCGUGCUCCGUUGAAUGGAGUUUAUCAUG,≤ -4.2
14,GGAUCUUCUCGAUCUACCAAAAAAGACAAAUCUGCCACAAAGUUUGAGAGCAUCUUCGGAUGUAGAGGCGGCAGCCUUCGGUGGCGCCAUAGCGCCAACGUUCUCAACUAUGACACGCAAAACGCGUGCUCCGUUGAAUGGAGAUUAUCAUG,≤ -4.2
15,GGAUCUUCUCGAUCUACCAAAAAAGACAAAUCUGCCACAAAGUUUGAGAUCAUCUUCGGAUGCAGAGGCGGCAGCCUUCGGUGGCGUGAUAGCGCCAACGUUCUCAACUAUGACAGGCAAAACGCGUGCUCCGUUGAAUGGAGGUUAUCAUG,≤ -4.2
16,GGAUCUUCUCGAUCUACCAAAAAAGACAAAUCUGCCACAAAGCUUGAGAGCAUAUUGGGAUGCAGAGGCGGCAGCCUUCGGUGGCGCGAUAGCGCCAACGUUCUCAUCUAUGACACGCAAAACGCGUGCUCCGUUGAAUGGAGUUUAUCAUG,≤ -4.2
17,GGAUCUUCUCGAUCUACCAAAAAAGACAAAUCUGCCACAAAGCUUGAGAGCAUGUUCGGAUGCAGAGGCCGCAGCCUUCGGUGGUGCGAUAGCGCCAACGUUCUCAACUCUGACACGCAAAACGCGUGCUCCGUUGAAUGGAGUUUAUCAUG,≤ -4.2
18,GGAUCUUCUCGAUCUACCAAAAAAGACAAAUCUGCCACAAAGCUUGAGAGCAUCUUCGGAUGCAGAGGCGGCAGCUUUCGGUGGCGCGAUAUCGCCAACGUUCUCAACUAUGACACGCAAAACGCGUGAUCCGUUGAAUGGAGUUUAUCAUG,-3.05
19,GGAUCUUCUCGAUCUACCAAAAAAGACAAAUCUGCCACAAAGCUUGAGAGCAUCUUCGGAUGCAGAGGCGGCAGCCUUCGGUGGUGCGAUAGCGCCAACGUUCUCAACUAUGACACGCAAAACGCGUGCUCCGUUGAAUGGAGUUUAUCAUG,0.349

row,Variant,polymerase ribozyme fitness (log ratio)
1,GGAUCUUCUCGAUCUACCAAAAAAGACAAAUCUGCCACAAAGCUUGAGAGCAUCUUCGGAUGCAGAGGCGGCAGCCUUCGGUGGCGGGAUAGCGCCAACGUUCUCAACUAUGACAGGCACAACGCGUGCUCCGUUGAAUGGAGAUUAUCAUG,≤ -4.2
2,GGAUCUUCUCGAUCUACCAAAAAAAACAAAUCUGCCUCACAGCUUGAGAGCAUCUUCGGAUGCAGAGGCGGCAGCCUUCGGUGGCGUGAUAGCGCCCACGUUCUCAACUAUGACACGCAAAACGCGUGCUCCGUUGAAUGGAGUUUAUCAUG,≤ -4.2
3,GGAUCUUCUCGAUCUACCAAAAAAGACAAAUCUACCACAAAGCUUGAGAGCAUCUUCGGAUGCAGAGGCGGCAGCCUUCGGUGGCGCGAUAGCGCGAACGUUCUCAACUAUGACACGCAAGCCGCGUGCUCCGCUGAAUGGAGUUUAUCAUG,-1.47
4,GGAUCUUCUCGAUCUACCAAAAAAGACAAAUCUUCCACAAAGCUUGGGAGCAUCUUCGGAUGCAGAGGCGGCAGCCUUCGGUGACGCGAUAGCGCCAACGUUCUCAACUGUGACACGCAAAACGCGUGCUCCGUUGAAUGGAGUUUAUCAUG,≤ -4.2
5,GGAUCUUCUCGAUCUACCAAAAAAGACAAAUCUGCCACAAAACUUGAGAGCAUCUUGGGAUGCAGAGGCGGCAGCCUUCGGUGGCGCGAUAUCGCCAACGUGCUCAACUAUGAUACGCAACACGCGUGCUCCGUUGAAUGGAGUUUAUCAUG,≤ -4.2
6,GGAUCUUCUCGAUCUACCAAAAAAGACAAAUCUGCCACAAACCUUGAGAGCAUCUGCGGAUGCAGAGGCGGCAGCCUUCGGUGGCGCUAUAGCGUUAACGUUCUCAACUCUGACACGCAAAACGCGUGCUCCGUUGAAGGGAGUUUAUCAUG,≤ -4.2
7,GGAUCUUCUCGAUCUACCAAAAAAGACAAAUCUGCCACAAAUCUUGAGAGCAUCUUCGGAUGCAGAGGCGGCAGCCUUCGGUGGCGCAAUAGCGCCAACGCUCUCAAUUAUGACACGCAAAACGCGUGCUCCGUUGAAUGGAGUUUAUCAUG,≤ -4.2
8,GGAUCUUCUCGAUCUACCAAAAAAGACAAAUCUGCCACAAAGCUUAAGAGCAUCUUUAGAUGCAGAGGCGGCAGCCUUCGGUGACGCGAUAGCGCCAACGUUCUCAACUAUGACACGCAAAACGCGUGCUCCGUUGAAUAGAGUUUAUCAUG,≤ -4.2
9,GGAUCUUCUCGAUCUACCAAAAAAGACAAAUCUGCCACAAAGCUUGAGAUCAUCUACCGAUGCAGAGGCGGCAGCCUUCGGUGUCGCGAUAGCGCCAACGUUCUCAACUAUGACACGCAAAACGCGUGCUCCGUUGAAUGGAGUUUAUCAUG,-1.22
10,GGAUCUUCUCGAUCUACCAAAAAAGACAAAUCUGCCACAAAGCUUGAGAGCAUCUUCAGAUGCAGAGGCGGCAGCCUUCGGGGGCGCGAUAGCGCCAACGUUCUCAACUAUGACACGUAAAACGCGUGCUCCUUUGAAUGGAGUUUAUCAUG,≤ -4.2
11,GGAUCUUCUCGAUCUACCAAAAAAGACAAAUCUGCCACAAAGCUUGAGAGCAUCUUCGGAUUCAGAGGCGGCAGCCUUCGGUGGCGCUAUAGCGCCAACGUUCUCUACUAGGACACGCAAAACGCGUGCUCCGUUGAAUGGAGUUUAUCAUG,≤ -4.2
12,GGAUCUUCUCGAUCUACCAAAAAAGACAAAUCUGCCACAAAGCUUGAGAGCAUCUUCGGAUGCAGAGGCGGCAGCCUUCGGUAGCACGAUAGCGCCAACGUUCUCAACUAGGACACGCAAAACGCGUGCUCCGUUGAAUGGAAUUUAUCAUG,≤ -4.2
13,GGAUCUUCUCGAUCUACCAAAAAAGACAAAUCUGCCACAAAGCUUGAGAGCAUCUUCGGAUGCAGAGGCGGCAGCCUUCGGUUGCCCGAUAGCGCCAACGUUCUCAACUAUGAAACGCAAAACGCGUGCUCCGUUGGAUGGAGUUUAUCAUG,≤ -4.2
14,GGAUCUUCUCGAUCUACCAAAAAAGACAAAUCUGCCACAAAGCUUGAGAGCAUCUUCGGAUGCAGAGGCGGCAGCCUUCGGUGGCCCGAUAGCGACAACCUUCUCAACUAUGACACGCAAAACGCGCGCUAGGUUGAAUGGAUUUUAUCAUG,≤ -4.2
15,GGAUCUUCUCGAUCUACCAAAAAAGACAAAUCUGCCACAAAGCUUGAGAGCAUCUUCGGAUGCAGAGGCGGCAGCCUUCGGUGGCUCGAUAGCGCCAACGUUUUCAACUAUUACACGCAAAACGCGUGCUCCGUUGAAUGGAGUUUAUCAUG,≤ -4.2
16,GGAUCUUCUCGAUCUACCAAAAAAGACAAAUCUGCCACAAAGCUUGAGAGCAUCUUCGGAUGCAGAGGCGGCAGCCUUCGGUGGCGCCAUAGCGCCAACGUUCUCAACUAUGACACGCAAAACGCGUGCUCCGUUGAAUCGAGUUUCUCAUG,≤ -4.2
17,GGAUCUUCUCGAUCUACCAAAAAAGACAAAUCUGCCACAAAGCUUGAGAGCAUCUUCGGAUGCAGAGGCGGCAGCCUUCGGUGGCGCGAUAGCGCCAACGUUCUCAACUAUGACACGCAAAACGCGUGCUCCGUUGAAUGUAGUUUAUCAUG,1.61
18,GGAUCUUCUCGAUCUACCAAAAAAGACAAAACUGCCACAAAGCUUGAGAGCAUCUUCGGAUGCAGAGGCGGCAGCCUUCGGUGGCGCGAUAUCGCCAUCGUUCUCAACUAUGACACGCAAAACGCGUGCUCCGUUGAAUGAAGUUUAUCAUG,0.253
19,GGAUCUUCUCGAUCUACCAAAAAAGACAAACCUGCCACAAAGCUUGCGAGCAUCAUCGGAUGCAGAGGCGGCAGCUUUCGGUGUCGCGAUAGCGCCAACGUUCUCAACUAUGACACGCAAAACGCGUGCUCCGUUGAAUGGAGUUUAUCAUG,-3.49
